# Assay results from the supplement of paper PMC8728848.
# The other results are listed elsewhere or left out.
# Key:
# Test in all cases: glycan array binding signal (z-score within array); higher = stronger binding
# Settings in all cases: glycan notation: IUPAC condensed, linker removed
# [1] = target: Fuc(a1-2)Gal
# In short: (§1)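 Columns mapping to the same glycan were averaged after glycan names were converted to IUPAC-condensed notation. The data come from 3228 arrays in the Consortium for Functional Glycomics database, limited to those with an available protein sequence. Binding is reported as a within-array Z-score averaged across arrays of one protein sequence and across linkers.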
# [2] = target: Fuc(a1-2)Gal(b1-3)GalNAc
# In short: as §1
# [3] = target: Fuc(a1-2)Gal(b1-3)GalNAc(a1-3)[Fuc(a1-2)]Gal(b1-4)Glc
# In short: as §1
# [4] = target: Fuc(a1-2)Gal(b1-3)GalNAc(a1-3)[Fuc(a1-2)]Gal(b1-4)GlcNAc
# In short: as §1
# [5] = target: Fuc(a1-2)Gal(b1-3)GalNAc(b1-3)Gal
# In short: as §1
# [6] = target: Fuc(a1-2)Gal(b1-3)GalNAc(b1-3)Gal(a1-4)Gal(b1-4)Glc
# In short: as §1
# [7] = target: Fuc(a1-2)Gal(b1-3)GalNAc(b1-4)[Neu5Ac(a2-3)]Gal(b1-4)Glc
# In short: as §1
# [8] = target: Fuc(a1-2)Gal(b1-3)GlcNAc
# In short: as §1
# [9] = target: Fuc(a1-2)Gal(b1-3)GlcNAc(b1-2)Man(a1-3)[Fuc(a1-2)Gal(b1-3)GlcNAc(b1-2)Man(a1-6)]Man(b1-4)GlcNAc(b1-4)GlcNAc
# In short: as §1
# [10] = target: Fuc(a1-2)Gal(b1-3)GlcNAc(b1-2)Man(a1-3)[Fuc(a1-2)Gal(b1-3)GlcNAc(b1-2)Man(a1-6)]Man(b1-4)GlcNAc(b1-4)[Fuc(a1-6)]GlcNAc
# In short: as §1
# [11] = target: Fuc(a1-2)Gal(b1-3)GlcNAc(b1-3)Gal(b1-4)Glc
# In short: as §1
# [12] = target: Fuc(a1-2)Gal(b1-3)GlcNAc(b1-3)GalNAc
# In short: as §1
# [13] = target: Fuc(a1-2)Gal(b1-3)GlcNAc(b1-3)[Fuc(a1-2)Gal(b1-3)GlcNAc(b1-6)]GalNAc
# In short: as §1
# [14] = target: Fuc(a1-2)Gal(b1-3)GlcNAc(b1-3)[Gal(b1-4)GlcNAc(b1-6)]Gal(b1-4)Glc
# In short: as §1
# [15] = target: Fuc(a1-2)Gal(b1-3)GlcNAc(b1-3)[Neu5Ac(a2-6)Gal(b1-4)GlcNAc(b1-6)]Gal(b1-4)Glc
# In short: as §1
# [16] = target: Fuc(a1-2)Gal(b1-3)GlcNAc6S
# In short: as §1
# [17] = target: Fuc(a1-2)Gal(b1-3)[Fuc(a1-4)]GlcNAc
# In short: as §1
# [18] = target: Fuc(a1-2)Gal(b1-3)[Fuc(a1-4)]GlcNAc(b1-2)Man(a1-3)[Fuc(a1-2)Gal(b1-3)[Fuc(a1-4)]GlcNAc(b1-2)Man(a1-3)]Man(b1-4)GlcNAc(b1-4)GlcNAc
# In short: as §1
# [19] = target: Fuc(a1-2)Gal(b1-3)[Fuc(a1-4)]GlcNAc(b1-2)Man(a1-3)[Fuc(a1-2)Gal(b1-3)[Fuc(a1-4)]GlcNAc(b1-2)Man(a1-6)]Man(b1-4)GlcNAc(b1-4)[Fuc(a1-6)]GlcNAc(b1-4)[Fuc(a1-6)]GlcNAc
# In short: as §1
# [20] = target: Fuc(a1-2)Gal(b1-3)[Fuc(a1-4)]GlcNAc(b1-3)[Fuc(a1-3)[Gal(b1-4)]GlcNAc(b1-6)]Gal(b1-4)Glc
# In short: as §1
# [21] = target: Fuc(a1-2)Gal(b1-3)[Fuc(a1-4)]GlcNAc(b1-3)[Gal(b1-4)GlcNAc(b1-6)]Gal(b1-4)Glc
# In short: as §1
# [22] = target: Fuc(a1-2)Gal(b1-4)Fuc(a1-3)]GlcNAc(b1-2)Man(a1-3)[Fuc(a1-2)Gal(b1-4)[Fuc(a1-3)]GlcNAc(b1-2)Man(a1-6)]Man(b1-4)GlcNAc(b1-4)GlcNAc
# In short: as §1
# [23] = target: Fuc(a1-2)Gal(b1-4)Glc
# In short: as §1
# [24] = target: Fuc(a1-2)Gal(b1-4)Glc6S
# In short: as §1
# [25] = target: Fuc(a1-2)Gal(b1-4)GlcNAc
# In short: as §1
# [26] = target: Fuc(a1-2)Gal(b1-4)GlcNAc(b1-2)Man
# In short: as §1
# [27] = target: Fuc(a1-2)Gal(b1-4)GlcNAc(b1-2)Man(a1-3)[Fuc(a1-2)Gal(b1-4)GlcNAc(b1-2)Man(a1-6)]Man(b1-4)GlcNAc(b1-4)GlcNAc
# In short: as §1
# [28] = target: Fuc(a1-2)Gal(b1-4)GlcNAc(b1-2)Man(a1-3)[Fuc(a1-2)Gal(b1-4)GlcNAc(b1-2)Man(a1-6)]Man(b1-4)GlcNAc(b1-4)[Fuc(a1-6)]GlcNAc
# In short: as §1
# [29] = target: Fuc(a1-2)Gal(b1-4)GlcNAc(b1-2)[Fuc(a1-2)Gal(b1-4)GlcNAc(b1-4)]Man(a1-3)[Fuc(a1-2)Gal(b1-4)GlcNAc(b1-2)Man(a1-6)]Man(b1-4)GlcNAc(b1-4)GlcNAc
# In short: as §1
# [30] = target: Fuc(a1-2)Gal(b1-4)GlcNAc(b1-3)Gal(b1-4)GlcNAc
# In short: as §1
binder,measurement,setting,value
PX9961A-pdi-456-24-456 (Parabacteroides distasonis) (protein) KTSSTQLPTIDAISSVADLTNAVNGVYEQQATEVGSYGAEFTLLADLRSGDFQSISTVNHAGPMYRYQTGKNDEMVYSFYKLFYNSLARLNNVLAAAENLEGADVDILKGELYAMRALYHFDLARVFAKLPSTTDMNDLGIVLSTEVYPTDYIGTRATLQQTYDQILKDIETALPLLSKDKQTGHINYWGALAIRARAYLYLEKNKEALADCKEIIASSPYKLYTRDEYIGAWDKEGTNEAIFEILVTPNYNAQRNSIGYFTHASGYGECAATESFLEELAKHPGDIRTELFAKETDNGYDGTYPQKYKGRDGQIYVNNPKVVRLSEVYLIAAEAALKAGDTSAAAGYMNTLRKNRIENYTDVASITLDDILLERRLELFTEGHTAWDAWRNGKSVNNKFVGEVKPGDYRTIMAIPIGEITVSRGQLIQNPGY,glycan array binding signal (z-score),[1],-0.421
same,glycan array binding signal (z-score),[2],-0.251
same,glycan array binding signal (z-score),[3],-0.331
same,glycan array binding signal (z-score),[4],-0.512
same,glycan array binding signal (z-score),[5],-0.487
same,glycan array binding signal (z-score),[6],-0.216
same,glycan array binding signal (z-score),[7],-0.355
same,glycan array binding signal (z-score),[8],-0.333
same,glycan array binding signal (z-score),[9],-0.154
same,glycan array binding signal (z-score),[10],-0.384
same,glycan array binding signal (z-score),[11],-0.276
same,glycan array binding signal (z-score),[12],-0.082
same,glycan array binding signal (z-score),[13],-0.086
same,glycan array binding signal (z-score),[14],-0.124
same,glycan array binding signal (z-score),[15],0.197
same,glycan array binding signal (z-score),[16],0.178
same,glycan array binding signal (z-score),[17],-0.249
same,glycan array binding signal (z-score),[18],0.484
same,glycan array binding signal (z-score),[19],0.196
same,glycan array binding signal (z-score),[20],-0.396
same,glycan array binding signal (z-score),[21],-0.071
same,glycan array binding signal (z-score),[22],0.209
same,glycan array binding signal (z-score),[23],-0.371
same,glycan array binding signal (z-score),[24],-0.312
same,glycan array binding signal (z-score),[25],-0.365
same,glycan array binding signal (z-score),[26],-0.263
same,glycan array binding signal (z-score),[27],-0.237
same,glycan array binding signal (z-score),[28],-0.38
same,glycan array binding signal (z-score),[29],-0.13
same,glycan array binding signal (z-score),[30],-0.394
